Results as given in article PMC4336329 (PLoS ONE, 2015).
In all, about 310,000 compounds went through this assay and about 2,200 (0.71%) showed an effect of 50% or more. Effects have a minus sign here. Some of the results follow.

The compounds below were run against human ether-à-go-go-related gene (hERG) potassium channel (human, UniProt Q12809) (assay: primary screen, population patch clamp on CHO cells stably expressing hERG).
human ether-à-go-go-related gene (hERG) potassium channel, sequence (Q12809 whole entry, looked up): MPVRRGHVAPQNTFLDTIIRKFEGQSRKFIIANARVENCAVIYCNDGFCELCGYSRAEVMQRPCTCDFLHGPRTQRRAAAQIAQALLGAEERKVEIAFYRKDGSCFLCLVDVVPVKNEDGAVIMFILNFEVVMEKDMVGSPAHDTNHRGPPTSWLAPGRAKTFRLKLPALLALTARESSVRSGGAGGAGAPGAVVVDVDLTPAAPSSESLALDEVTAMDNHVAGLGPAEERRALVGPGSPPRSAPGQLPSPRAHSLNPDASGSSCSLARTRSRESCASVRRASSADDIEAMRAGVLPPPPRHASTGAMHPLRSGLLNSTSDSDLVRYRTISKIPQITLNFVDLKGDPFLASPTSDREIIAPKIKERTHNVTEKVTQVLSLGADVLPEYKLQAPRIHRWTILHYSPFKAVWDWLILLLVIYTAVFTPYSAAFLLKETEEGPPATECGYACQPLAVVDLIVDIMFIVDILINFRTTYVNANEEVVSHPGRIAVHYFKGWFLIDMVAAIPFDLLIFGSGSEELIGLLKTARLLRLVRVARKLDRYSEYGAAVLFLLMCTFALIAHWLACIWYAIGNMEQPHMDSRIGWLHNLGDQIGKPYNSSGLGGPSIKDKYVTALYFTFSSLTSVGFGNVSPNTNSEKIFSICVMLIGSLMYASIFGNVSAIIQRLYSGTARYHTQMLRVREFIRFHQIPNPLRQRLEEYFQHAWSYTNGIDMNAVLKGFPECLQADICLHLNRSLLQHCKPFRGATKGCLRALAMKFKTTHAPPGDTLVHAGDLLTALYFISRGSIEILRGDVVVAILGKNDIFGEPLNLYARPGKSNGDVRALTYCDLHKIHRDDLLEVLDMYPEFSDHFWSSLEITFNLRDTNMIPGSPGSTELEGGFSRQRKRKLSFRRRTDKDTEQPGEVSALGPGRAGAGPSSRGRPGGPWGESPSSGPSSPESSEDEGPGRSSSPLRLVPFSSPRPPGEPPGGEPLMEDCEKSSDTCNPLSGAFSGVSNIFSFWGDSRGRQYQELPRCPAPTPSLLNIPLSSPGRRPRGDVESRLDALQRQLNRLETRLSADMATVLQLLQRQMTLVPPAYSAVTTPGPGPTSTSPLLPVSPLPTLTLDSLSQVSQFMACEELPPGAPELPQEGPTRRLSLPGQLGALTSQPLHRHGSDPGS

| SMILES | hERG current change (%, negative = inhibition) at 1uM |
| --- | --- |
| Cc1nnc(Oc2ccccc2F)c2ccccc12 | 11.8% |
| Cc1[nH]ccc(=O)c1Cc1c(Cl)cccc1Cl | -1.69% |
| N/C(=N\OC(=O)c1ccncc1)c1cccc([N+](=O)[O-])c1 | 7.79% |
| Cc1cc(C)c2c(CN3CCN(Cc4ccccc4)CC3)cc(=O)oc2c1C.Cl | -7.5% |
| CN(CC(=O)Nc1ccccc1Cl)C(=O)COC(=O)CSc1ccc(Cl)cc1 | 10.3% |
| COc1ccc(/C=N/n2cnc3c([nH]c4ccccc43)c2=O)cc1COc1ccccn1 | 5.27% |
| C/C(=N/NC(=O)c1ccc(Cl)s1)c1cccnc1 | 4.7% |
| Cc1sc(NC(=O)CSc2nnc(COc3ccc(Cl)cc3)n2C)c(C#N)c1C | 12.1% |
| c1ccc(CNc2ccc3ccccc3n2)nc1 | 4.46% |
| Cc1cc(C)n(-c2nc3ccccc3nc2Nc2ccc3[nH]c(=O)[nH]c3c2)n1 | 1.42% |
| CCN(CCCNC(=O)CCc1nc(-c2ccc(C)cc2)no1)c1cccc(C)c1 | 7.68% |
| O=C(CCCOc1ccc(Cl)cc1)Nc1ccc(N2CCOCC2)cc1 | 10.7% |
| Cc1ccc(C(=O)CCC(=O)Nc2cc(C)ccn2)cc1 | 3.03% |
| Nc1nnn(CC(=O)N/N=C/c2ccccc2Cl)n1 | 14.4% |
| Cn1ccnc1C1CCCCN1C(=O)c1cc(COc2ccc(F)cc2Cl)on1 (centres unmarked) | 1.66% |
| O=C(NCCc1ccc2c(c1)OCCO2)c1cc2ccccc2o1 | -16.6% |
| S=C(NCCc1ccccn1)NC1CCCCC1 | 11.3% |
| Cc1ccc(C2OC34CCCCCC3C(C#N)(C(=N)O4)C2(C#N)C#N)cc1 (centres unmarked) | 9.09% |
| c1ccc(-c2noc(-c3ccc4c(c3)OCO4)n2)nc1 | 14.3% |
| O=C(O)CN(Cc1ccco1)S(=O)(=O)c1ccc(F)cc1 | 11.9% |

| SMILES | hERG current change (%, negative = inhibition) at 1uM |
| --- | --- |
| Br.CCn1c(-c2ccccc2)csc1=Nc1ccc(O)cc1 | 4.88% |
| CC(=O)Nc1ccc(NC(=O)c2ccc(NC(=O)c3ccccc3)cc2)cc1 | -4.31% |
| Cn1nc(OC(=O)Nc2ccc(F)cc2)cc1C(F)(F)F | 2.69% |
| CNC(=S)N(CCc1c(C)[nH]c2ccccc12)Cc1cccnc1 | 7.21% |
| O=C(Nc1ccccc1C(=O)Nc1ccc(F)cc1)c1ccco1 | 6.37% |
| COc1ccccc1C1C2=C(N=c3s/c(=C/c4cccc(OCC(=O)O)c4)c(=O)n31)c1ccccc1CC2 (centres unmarked) | 23.4% |
| CCCCn1cc(SCC(=O)O)c2ccccc21 | 7.37% |
| COc1ccc(C(=O)Nc2nccs2)cc1 | 14.1% |
| CC1CCc2ccccc2N1C(=N)N(C)C.Cl (centres unmarked) | 10.3% |
| COCC(=O)Nc1ccc(F)cc1 | 17.8% |
| COc1ccc(CCCC(=O)NC2CCCCC2)cc1 | 11.1% |
| CCC(COC(C)=O)Nc1nc2c([nH]1)c(=O)n(C)c(=O)n2C (centres unmarked) | 11.8% |
| Cc1ccc2nc(-c3cccs3)oc(=O)c2c1 | 7.58% |
| CCOP(=O)(OCC)/C(C#N)=C/c1cc(OC)ccc1OC | 15.9% |
| O=C(OCc1ccc([N+](=O)[O-])cc1)C1CC(=O)N(Cc2ccccc2Cl)C1 (centres unmarked) | -10.3% |
| Cc1ccc(C(C)C)c(OCC(O)CN2CCc3ccccc3C2)c1.Cl (centres unmarked) | -26.4% |
| Cc1cccc(-n2ncc3c2CCCC3NC(=O)CCN2Cc3ccccc3C2=O)c1C (centres unmarked) | 8.29% |
| CCOC(=O)C1CCCN(C(=O)c2ccc(S(=O)(=O)N3CCOCC3)cc2)C1 (centres unmarked) | 14.4% |
| O=C(Nc1cccc(Oc2ccc3c(c2)C(=O)NC3=O)c1)c1ccco1 | 8.29% |
| CC(C)c1nc2n[nH]c(N)c2c2c1CCC2 | 14.3% |

| SMILES | hERG current change (%, negative = inhibition) at 1uM |
| --- | --- |
| CCOC(=O)C1CCN(S(=O)(=O)c2ccc(C)c(C(=O)NC3CCCCC3)c2)CC1 | -27.7% |
| CN(CC(=O)Nc1ccc(Cl)cc1)C(=O)c1ccc(-n2cncn2)c([N+](=O)[O-])c1 | -26.2% |
| CCOc1ccc(CN(CCCl)CCCl)cc1C(=O)OC.Cl | 16.5% |
| O=C(O)c1ccccc1NCCO | 18% |
| c1ccc(-c2ccc(-c3csnn3)cc2)cc1 | 14.6% |
| O=C1S/C(=C\c2ccc(N3CCOCC3)o2)C(=O)N1c1ccccc1 | 10.2% |
| O=C(NCc1nnnn1-c1ccc(F)c(F)c1)c1ccc(S(=O)(=O)N2CCOCC2)cc1 | 6.59% |
| CCN(CC)S(=O)(=O)c1cc(C(=O)O)ccc1OC | 10.8% |
| CC(=O)Nc1nc2ccc(Br)cc2s1 | 0.269% |
| COc1cccc(-c2ccc(NC(=O)C3CCCN(Cc4cnc(C)n4C)C3)cc2)c1 (centres unmarked) | -4.85% |
| O=C(c1ccc(-n2cncn2)c([N+](=O)[O-])c1)N1CCN(S(=O)(=O)c2c(F)cccc2F)CC1 | -14.2% |
| COc1cccc2[nH]c3c(Cl)ncnc3c12 | 11.6% |
| COc1ccc(NC(=O)CCC(=O)c2ccc(C(C)C)cc2)cc1 | 17.5% |
| N#Cc1ccccc1Sc1ccccc1C(=O)OCc1nnc(-c2ccccc2)o1 | 6.43% |
| O=C(CCc1nnc(CCCCc2ccccc2)o1)N1CCC(N2CCCC2)CC1 | 12.1% |
| O=C(CSCc1ccc(Cl)cc1)N/N=C/c1ccc(OCC(=O)Nc2ccccc2)cc1 | 12.6% |
| COc1cc2ccccc2cc1C(=O)OCC(=O)c1c(N)n(C)c(=O)n(C)c1=O | -0.545% |
| O=C(CN1CCCN(S(=O)(=O)c2ccc(F)cc2)CC1)Nc1c(Cl)cccc1Cl | 7.86% |
| CCCCn1c(N)c(N(CCOC)C(=O)CCCc2nc3ccccc3s2)c(=O)[nH]c1=O | 10.6% |
